Test results taken from PubChem BioAssay AID1466 (National Center for Advancing Translational Sciences (NCATS), 2008).
The campaign covered roughly 200,000 compounds. About 10 (0.005%) were called active. The inconclusive results got no clear call from the source; some entries with a clear call stand among them for comparison. Calls come from the whole dose curve; as a rule, active = well fitted inhibition curve with a large enough effect; inconclusive = small, poorly fitted or top-dose-only effect, or effect the other way, or another doubt; inactive = no such curve, though single readings can be large or run the other way. Potencies of inconclusive entries are doubtful fits and often do not repeat.

Biological target: Lysosomal alpha-glucosidase (Homo sapiens) (UniProt P10253)
Assay: qHTS Assay for Inhibitors of Human alpha-Glucosidase as a Potential Chaperone Treatment of Pompe Disease;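 for activity change, negative = inhibition: plate controls were uninhibited enzyme wells for no effect and no-enzyme background for full effect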
Settings: purified human GAA, 4-MU-alpha-glucoside fluorescence; activity change, negative = inhibition: at 76.9 µM (top of the series) unless noted
From the text: NIH Chemical Genomics Center [NCGC] NIH Molecular Libraries Probe Production centers Network [MLPCN] MLPCN Grant: 1R03MH084841-01 Assay Submitter (PI): Wei Zheng NCGC Assay Overview: Alpha-glucosidase is responsible for hydrolysis of terminal, non-reducing 1,4-linked alpha-D-glucose residues with release of alpha-D-glucose. It is a lysosomal hydrolase that is required for the degradation of a small percentage (1-3%) of cellular glycogen in human. Deficiency of this enzyme results in glycogen-storage disease type II (GSDII), also referred to as Pompe disease, an autosomal recessive disorder. Structurally normal glycogen is accumulated in lysosomes and cytoplasm in affected patients, primarily in muscle tissues. Excessive glycogen storage within lysosomes may interrupt normal functioning of other organelles and leads to cellular injury. In turn, this leads to enlargement and dysfunction of the entire organ involved (eg, cardiomyopathy and muscle weakness). It has reported that the improper folding and trafficking of alpha-glucosidase resulting from the genetic mutations may account for a significant number of Pompe patients. […] We optimized this alpha-glucosidase assay in 1536-well plate format for identifying the novel small molecule inhibitors with the structures other than the sugar analogs in order to develop the new pharmacological chaperones.
NCGC Assay Protocol Summary: This is a fluorogenic enzyme assay with 4-methylumbelliferyl-alpha-D-[…] as the substrate and human alpha-glucosidase as the enzyme preparation. Upon the hydrolysis of this fluorogenic substrate, the resulting product, 1. 4-methyllumbelliferone, can be excited at 365 nm and emits at 440 nm which can be detected by a standard fluorescence plate reader. Data were normalized to the controls for basal activity (without enzyme) and 100% activity (with enzyme). In the AC50 values were determined from concentration-response data modeled with the standard Hill equation. Assay buffer: 50 mM citric acid (titrated with potassium phosphate to pH 5.0), 0.005% Tween-20, pH 5.0. (pH 5.0 is an optimal condition for this enzyme assay) 1536-well assay protocol for the human alpha-glucosidase: (1) Add 2 ul/well of enzyme (4 nM final) (2) Add 23 nL compounds in DMSO solution. The final titration was 0.7 nM to 77 uM. (3) Add 1 ul of substrate (400 uM final) (4) Incubate at room temperature for 20 min. (5) Add 2 ul stop solution (1M NaOH and 1M Glycine mixture, pH 10) (6) Detect the assay plate in a ViewLux plate reader (PerkinElmer) with Ex=365 nm and Em=440nm. Keywords: Alpha-glucosidase, Pompe Disease, pharmacological chaperone, chaperone therapy, high throughput screening, alpha-glucosidase inhibitor, MLSMR, MLSCN, NIH Roadmap, qHTS and NCGC
Potency is the fitted concentration of half-maximal effect; tags give direction and shape of the fitted curve.

Activity change, negative = inhibition, inactive:
CC1=CC2=C(OC1N(C)C)c1cccc3cccc(c13)C2=O (stereo not drawn) -2.98%
COC(=O)c1noc(C)c1-c1ccnn1C(=O)c1ccc(Cl)cc1 -10.5%
C/C(CC(=O)Nc1ccc(N(C)C)cc1)=N\NC(=O)Cc1csc(N)n1 -3%

Activity change, negative = inhibition, inconclusive:
O=C(NCc1ccc2[nH]c3c(c2c1)CCCC3)c1ccc(S(=O)(=O)N2CCCC2)cc1 -17.8% [inhibitor]
Cc1cc([N+](=O)[O-])ccc1NC(=O)C[n+]1ccc(N(C)C)cc1 21.9% [activator]
COc1cc2c(cc1OC)CN(C(=O)c1ccc(S(=O)(=O)N(C)c3ccccc3)cc1)CC2 -1.34% [inhibitor] [at 15.4 µM]
CCOC(=O)c1c(C)[nH]c(C(C)=O)c1C -18% [inhibitor]
O=C(N/N=C1\C(=O)c2cccc3cccc1c23)c1ccc(O)cc1 -17.2% [inhibitor]
Cc1cccc(C2c3[nH]c4ccccc4c3CCN2C(=O)c2ocnc2C)n1 (stereo not drawn) 13.8% [activator]
COc1ccc(C2NC(=S)NC(C)=C2C(=O)Nc2ccccn2)cc1 (stereo not drawn) 16% [activator]
CC(C)(C)NC(=O)CN(Cc1ccc2c(c1)OCO2)C(=O)CCC(=O)Nc1nccs1 13.6% [activator]
Cn1c(-c2ccccc2)cc2c3no[n+]([O-])c3ccc21 15.6% [activator]
COc1ccc(CNC(=O)CSc2nc(-c3ccccc3)cc(-c3cccs3)c2C#N)cc1 15.8% [activator]
COc1ccc(CNC(=O)CCc2c(C)nc3ncnn3c2C)cc1 21.2% [activator]
CC(C)(CNC(=O)c1cccs1)CNC(=O)c1cccs1 -19.2% [inhibitor]
CCCN1C/C(=C/c2ccc3c(c2)OCO3)C(=O)/C(=C/c2ccc3c(c2)OCO3)C1 -17% [inhibitor]
NC(=S)NNC(=S)Nc1ccccc1 17.9% [activator]
Cc1ccc(-c2noc(-c3cc4ccccc4oc3=O)n2)cc1 17.7% [activator]

Potency, inconclusive:
Cc1ccc(S(=O)(=O)N2CCN(c3nc4ccccc4nc3-n3nc(C)cc3C)CC2)cc1 28.2 µM [inhibitor, partial curve, poor fit]
COc1ccc(C(=O)N/C(=C\c2ccc3c(c2)OCO3)C(=O)NCCc2nc3ccccc3[nH]2)cc1 1.12 µM [inhibitor, full curve, poor fit]
O=C(COc1ccc(Br)cc1)N1CCC(c2ccccc2)C1 (stereo not drawn) 44.7 µM [inhibitor, single point]
COCCn1nnnc1C(c1cc2cccc(C)c2[nH]c1=O)N1CCN(c2ccccc2F)CC1 (stereo not drawn) 15.8 µM [inhibitor, partial curve]
CSC[C@@H]1NC(=S)N(c2ccc(C)cc2)C1=O 3.55 µM [inhibitor, partial curve]
Cc1nn(Cc2cccc(Oc3ccccc3)c2)c(C)c1NC(=O)NC12CC3CC(CC(C3)C1)C2 35.5 µM [inhibitor, single point]
Cc1nn(-c2ccccn2)c2nc(-c3cccs3)cc(C(=O)N3CCOCC3)c12 25.1 µM [activator, single point]
CCCCCn1c(=O)[nH]c2cc(C(=O)NCCN(CC)CC)ccc2c1=O 35.5 µM [activator, partial curve]
Cc1ccc(C(=O)Nc2ccc(S(=O)(=O)N3CCOCC3)cc2)cc1 44.7 µM [inhibitor, partial curve, poor fit]
C=CCn1c(-c2cccs2)nc2nc3ccccc3nc21 35.5 µM [activator, partial curve]
CSc1cccc(NC(=S)N(Cc2ccc(C)cc2)Cc2cccnc2)c1 0.794 µM [inhibitor, full curve, poor fit]
COc1cccc(OCC(=O)NNC(=O)c2ccc(-c3ccccc3)cc2)c1 1.12 µM [inhibitor, partial curve, poor fit]
COc1cccc(N2CC(C(=O)Nc3ccc(C(=O)OC(C)C)cc3)CC2=O)c1 (stereo not drawn) 56.2 µM [inhibitor, single point]
CC1CCCN(C(=S)SCC(=O)c2cc(Br)cc(Br)c2O)C1 (stereo not drawn) 39.8 µM [inhibitor, single point]
CCOC(=O)C(N)CSC1CC(=O)N(c2ccc(C(=O)OC)cc2)C1=O (stereo not drawn) 50.1 µM [inhibitor, single point]
Cc1ccc2cc3c(nc2c1)N(c1ccccc1)CC3 22.4 µM [activator, partial curve]
Cc1ccccc1CN(c1ccc(C(=O)Nc2ccccc2C(=O)NCc2ccco2)cc1)S(C)(=O)=O 1.26 µM [inhibitor, full curve, poor fit]
Cc1ccc(-c2nc3c(=O)n(-c4ccccc4)c4c(c(=O)n(C)c(=O)n4C)c3o2)cc1 3.98 µM [inhibitor, full curve]
CCCn1c(=O)[nH]c(=O)c2c(C(=O)OCC)cc(-c3cccs3)nc21 35.5 µM [activator, partial curve]
COc1ccc(C(=O)NCC(=O)OCc2ccc([N+](=O)[O-])cc2)cc1 3.55 µM [inhibitor, full curve, poor fit]
O=C(c1ccc(S(=O)(=O)N2CCc3ccccc3C2)cc1)N1CCCCC1 15.8 µM [inhibitor, partial curve, poor fit]
CN(C)CCNc1ncnc2ccccc12 6.31 µM [inhibitor, single point]
COc1ccc(CCNC(=O)c2sc3ccccc3c2Cl)cc1OC 50.1 µM [inhibitor, single point]
O=C1Cc2ccccc2Sc2cc(OCCCN3CCCCC3)ccc21 22.4 µM [inhibitor, partial curve, poor fit]
CCCCCn1c(=O)[nH]c2cc(C(=O)N3CCN(CC)CC3)ccc2c1=O 56.2 µM [activator, single point]
Cc1noc(C)c1COc1cccc(C(=O)OCC(=O)N2CC(=O)Nc3ccccc32)c1 50.1 µM [inhibitor, single point]
O=C(COc1ccc(F)cc1)N1c2ccccc2CCc2ccccc21 44.7 µM [inhibitor, partial curve]
CCOCCCn1c(=NC(C)=O)c(C#N)cc2c(=O)n3ccccc3nc21 31.6 µM [activator, partial curve]
CCC(C(=O)OC)n1cnc2c(cnn2-c2ccc(Cl)cc2)c1=O (stereo not drawn) 20 µM [inhibitor, partial curve]
O=C(Nc1ncc([N+](=O)[O-])s1)C1CCN(S(=O)(=O)c2cnc[nH]2)CC1 50.1 µM [inhibitor, partial curve, poor fit]
CCOC(=O)c1cc(-c2ccc(C#N)cc2)nc2c1c(C)nn2CCC#N 50.1 µM [activator, single point]
CC(C(=O)NCC1CCCCC1)N(C)Cc1cccc(Cl)c1 (stereo not drawn) 31.6 µM [inhibitor, partial curve, poor fit]
CCOc1nc(-c2ccccc2Cl)ccc1C#N 12.6 µM [inhibitor, single point]
CN(C)/C=N/c1nc2nccc(-c3ccccc3)n2n1 31.6 µM [activator, single point]
CN(C)CCCN(Cc1ccccc1)C(=S)Nc1cccc(C(F)(F)F)c1 11.2 µM [inhibitor, single point]
COc1ccc(-c2nc(C#N)c(NC(C)c3ccccc3)o2)cc1OC (stereo not drawn) 11.2 µM [inhibitor, single point]
Cc1ccc(C(=O)O/N=C\c2ccc(N3CCOCC3)c([N+](=O)[O-])c2)cc1 50.1 µM [inhibitor, single point]
S=C(Nc1ccc(Cl)cc1)Nc1ccc2cn[nH]c2c1 0.891 µM [inhibitor, single point]
COCCCn1c(CCC(=O)O)ccc1-c1ccc(F)cc1 22.4 µM [activator, partial curve]
CCOC(=O)c1ccc(CS(=O)c2ccc(Cl)cc2)o1 (stereo not drawn) 12.6 µM [inhibitor, partial curve]
Oc1ccc2ccccc2c1C=Nc1ccccc1-c1nc2ccccc2[nH]1 11.2 µM [activator, single point]
N=c1c(S(=O)(=O)c2ccccc2)cc2c(=O)n3ccccc3nc2n1CC1CCCO1 (stereo not drawn) 0.794 µM [activator, single point]
Cc1oc2ccccc2c1-c1cn2c(n1)SCC2 12.6 µM [activator, partial curve]
O=C(/C=C/c1ccccc1Cl)NCCc1ccc(F)cc1 56.2 µM [inhibitor, single point]
CCCCc1cc(=O)oc2c(CN3CCCC3)c(O)ccc12 31.6 µM [activator, partial curve]
